The values below come from ChEMBL document CHEMBL4888484, “Replenishing the malaria drug discovery pipeline: Screening and hit evaluation of the MMV Hit Generation Library 1 (HGL1) against asexual blood stage Plasmodium falciparum ,using a nano luciferase reporter read-out” (2022).

The structures appear in SMILES notation. In all, about 150,000 compounds went through this assay and about 540 (0.36%) showed an effect of 50% or more. Some of the results follow.

This assay concerns Plasmodium falciparum. Put plainly: Primary screen in NF54 nanoGlo assay, in single point, at 2uM, 72h; a lower Z score goes with more inhibition. Type of assay: functional, Erythrocyte. The note with it: timepoint 72 hour.
The % Inhibition is the drop in the measured response relative to a control, in per cent. In the case of `O=S(=O)([C@H]1CCN(Cc2ccccc2)C1)N1CCC(c2nc3ccccc3s2)CC1`, the “% Inhibition” value is reported as -21% and the Z score is recorded as 1.89.
The corresponding values for `Cc1noc(C)c1S(=O)(=O)NCc1cccnc1N(C)Cc1ccccc1` are 11% and -0.94.
As to `CCCCOCCn1c(C(F)(F)F)ccc(C(N)=O)c1=O`, the “% Inhibition” value was -15% and the Z score turned out to be 1.53.
The corresponding values for `CCNC(=O)CC1(Cc2nc3cccnc3n2CC(C)C)CCCC1` are 4% and -0.55.
The corresponding values for `CC(N)C1CCCN(C(=O)c2cn(C(C)(C)C)nc2-c2ccc(F)cc2F)C1` (stereo not given) are 7% and -0.99.
With `Cc1cc(N2CC3CCCC3C2)n2ncnc2n1` (stereo not given), the “% Inhibition” value is listed as -4% and the Z score is listed as 0.6.
For the compound `Cn1cnc2cc(CNC3(C(F)(F)F)CCC3)ccc21`, the “% Inhibition” value amounted to 18% and the Z score is listed as -2.07.
Taken in the same sequence, the figures for `C[C@H]1CN(C)C(C)(C)CN1c1ccnc(C(=O)NCc2cccnc2)c1` were -9% and 0.83.
The corresponding values for `CN(Cc1ccccc1)c1nc(-c2ccc(F)cc2)c2c(N)n(-c3ccc(Cl)cc3)nc2n1` are 3% and -0.32.
Taken in the same sequence, the figures for `CCC(OC1CCCC(C)C1)C(=O)NCC1CCOC1` (stereo not given) were -7% and 1.11.
In the case of `CC(=O)N[C@H]1CNC(=O)C1(c1ccccc1)c1ccccc1`, the “% Inhibition” value is given as -2% and the Z score was 0.25.
The corresponding values for `COc1ccc(CC(=O)N2CCN(C3=Nc4ccccc4Oc4ccc(C)cc43)CC2)cc1` are 0% and -0.02.
The corresponding values for `CCCn1nc(C(=O)N(C)Cc2cccnc2)ccc1=O` are -3% and 0.4.
The corresponding values for `COc1cccc2c(=O)n(C3(C4CCCC4)CC3)cnc12` are -6% and 0.8.
Take `C[C@H](NC(=O)c1cccc(N(C)C)c1)c1ccc2c(c1)OCCO2`: the “% Inhibition” value is recorded as -4% and the Z score was found to be 0.51.
As for `COCCN1CCC[C@H]1C(=O)NC1CC1`, the “% Inhibition” value is given as -3% and the Z score is 0.57.
With `OCC1([C@H](NCc2cc(O)cc(F)c2)c2ccccc2)CCOCC1`, the “% Inhibition” value is recorded as -11% and the Z score was 1.14.
Taken in the same sequence, the figures for `O=C([C@@H]1CC[C@H](C(=O)N2CCOC3(CCC3)C2)C1)N1CCOC2(CCC2)C1` were 4% and -0.68.
Taken in the same sequence, the figures for `C[C@@]1(C(=O)NC2CCCCCCC2)Cn2c(cc3occc32)C(=O)N1c1ccc(Cl)cc1` were -5% and 0.99.
Taken in the same sequence, the figures for `CCCN(CC#N)CC(=O)Nc1cc(C)no1` were -5% and 0.46.
Consider `CC[C@H](NC(=O)c1nc2n(n1)CCCN2)c1ncc[nH]1`, for which the “% Inhibition” value is recorded as -16% and the Z score is 1.7.
`Clc1cc(-n2cnnn2)ccc1Oc1ccccc1`: the “% Inhibition” value stood at 2% and the Z score was -0.2.
Taken in the same sequence, the figures for `CCc1cccc(/N=C(\NC(=O)c2ccccc2)N2CCN(Cc3ccccc3F)CC2)c1` were 1% and -0.17.
Regarding `Cc1sccc1NC(=O)NCc1cc(C(F)F)on1`, the “% Inhibition” value is -11% and the Z score is 2.03.
Taken in the same sequence, the figures for `COc1cccc(CN2CCC[C@H]2c2nnc(C3CCOCC3)[nH]2)c1OC` were -7% and 1.33.
Regarding `CC(C)Cn1nc2n(c1=O)[C@H](C(=O)N1CCN(c3ccccn3)CC1)CCCC2`, the “% Inhibition” value is reported as -6% and the Z score was 0.56.
Taken in the same sequence, the figures for `Cc1ccccc1[C@H]1CN(C(=O)Cn2nc(C)c(C)c2C)C[C@@H]1C(=O)O` were -2% and 0.22.
As for `CN(C[C@H]1CCCO1)C(=O)Nc1ncc(Cc2ccccc2)s1`, the “% Inhibition” value was -4% and the Z score is given as 0.43.
The corresponding values for `O=c1[nH]c(N2CCC3(CC2)OCCO3)nnc1-c1ccccc1` are 2% and -0.32.
The corresponding values for `Cc1cc(C)c(C(=O)NCCN(C(=O)c2oc(C)cc2C)C2CC2)o1` are -7% and 0.67.
The corresponding values for `CC1CN(C(=O)C2CCC(C)(C)O2)CCN(C(=O)C2CCC(C)(C)O2)C1` (stereo not given) are -4% and 0.48.
On to `O=C(NCc1ccnc(C(F)(F)F)c1)NC1(C2CC2)CC1`, for which the “% Inhibition” value is on record as 7% and the Z score was -0.64.
The corresponding values for `COc1ccc(CN2CCC[C@]3(CCCN(C)C3)C2)cc1OCC(=O)O` are -6% and 1.21.
Taken in the same sequence, the figures for `Cc1nc(CN2CCn3c(nnc3C(F)(F)F)C2)sc1C` were -8% and 1.07.
Taken in the same sequence, the figures for `O=S(=O)(c1cccnc1)N1CCC[C@@H]1Cc1noc(-c2ccccc2)n1` were -7% and 1.35.
With `O=C1CC[C@@H]2CN(c3cnccn3)CC[C@@H]2N1CCc1ccccn1`, the “% Inhibition” value is recorded as -3% and the Z score stood at 0.49.
Taken in the same sequence, the figures for `CN(CC(F)(F)F)C(=O)CNc1ncccn1` were 3% and -0.38.
Taken in the same sequence, the figures for `CN(CCc1ccncc1)C[C@H](O)c1ccccc1F` were -8% and 1.14.
Turning to `CCc1ccc(-c2nc(C)c(C(=O)N(CC(=O)O)C3CCOCC3)s2)cc1`, the “% Inhibition” value is -2% and the Z score was found to be 0.32.
Regarding `CCC(CC)(CC)NC(=O)c1cc(C)nc(C)n1`, the “% Inhibition” value is on record as -1% and the Z score turned out to be 0.31.
With `Cc1cc(NC(=O)N2CCC[C@H]2c2nnc3ccccn23)n(C)n1`, the “% Inhibition” value is -17% and the Z score stood at 2.71.
The corresponding values for `CCNc1ccnc(N2CCC(F)(F)CC2)n1` are 1% and -0.13.
Taken in the same sequence, the figures for `O=C1CN(Cc2cc(Br)c3c(c2)OCO3)CCN1` were 13% and -1.76.
The corresponding values for `CC(=O)Nc1cc(Cl)ccc1NCC(=O)NCC(F)(F)F` are -10% and 1.24.
`Fc1cnccc1N1CC[C@H]2[C@H](C1)OCc1cnnn12`: the “% Inhibition” value was -8% and the Z score came to 1.56.
Taken in the same sequence, the figures for `O=C(N[C@H]1CC[C@H](O)CC1)N1CCC(c2cccc(O)c2)CC1` were -8% and 1.47.
Taken in the same sequence, the figures for `c1ccc2c(c1)CCCC2N1CCCC(Cn2cncn2)C1` (stereo not given) were -9% and 1.31.
As for `Cc1noc(C)c1CC(=O)N1CCC2(CC1)CC[C@]2(C)O`, the “% Inhibition” value was -13% and the Z score is given as 1.56.
Taken in the same sequence, the figures for `C[C@@H](C(=O)NCCc1ccccc1)S(C)(=O)=O` were -4% and 0.73.
For the compound `CNC(=O)[C@H]1CN(C)C[C@@H]1NS(=O)(=O)c1ccc(F)c(F)c1`, the “% Inhibition” value is given as -3% and the Z score worked out at 0.43.
Taken in the same sequence, the figures for `CC(C)[C@H](CNc1ncc(Cl)cn1)N(C)C` were -22% and 2.36.
For `CC(C)(C)OC(=O)N1CC(=C2NCCCN2)C1`, the “% Inhibition” value is on record as -8% and the Z score came out at 1.05.
Taken in the same sequence, the figures for `CN(C)c1cccc(-c2cccc(-c3ccn(CCO)n3)c2)c1` were -11% and 0.97.
For `O=S1(=O)C[C@H](CNC2CCC(F)(F)CC2)c2ccccc21`, the “% Inhibition” value was -14% and the Z score was 2.55.
For the compound `Cc1ccc(S(=O)(=O)N2CC=C(c3c(C)n(Cc4cccc(F)c4)c4ccccc34)CC2)cc1`, the “% Inhibition” value is on record as 10% and the Z score is -1.29.
The corresponding values for `CC1C(=O)C(C(=O)Nc2cccnc2)C(=O)N1Cc1ccccc1` (stereo not given) are 9% and -1.52.
The corresponding values for `Cc1cn(C(C)(C)C(=O)N[C@@H](C)c2cc(Cl)cc3c2OCC3)cn1` are 6% and -0.98.
Taken in the same sequence, the figures for `Cc1csc(-c2cc(NC(=O)Cc3cccc(F)c3)c(C)s2)n1` were -14% and 1.32.
`O=c1nc2n(nc1-c1ccccc1)C1(CCCCC1)Nc1ccccc1-2`: the “% Inhibition” value is recorded as -10% and the Z score is 1.25.
The corresponding values for `CC1=C[C@@H](CN2CCC(CO)CC2)[C@H](C(C)C)C[C@H]1Cc1nnc(-c2ccncc2)o1` are 26% and -2.94.
Taken in the same sequence, the figures for `O=C1C2ON(c3ccccc3)C(c3ccc(Cl)cc3Cl)C2C(=O)N1c1cccc(-c2ccccc2)c1` (stereo not given) were -5% and 0.5.
Consider `CC(c1cnn(C)c1)c1nc(C2(C)C=CCCC2)no1` (stereo not given), for which the “% Inhibition” value is listed as -2% and the Z score turned out to be 0.43.
Taken in the same sequence, the figures for `CCOC(=O)c1cc(OCC)ccc1N` were -6% and 0.55.
Taken in the same sequence, the figures for `O=C(NCCc1cc(O)ncn1)c1ccc2nc(-c3ccccc3)cn2c1` were -6% and 0.8.
The corresponding values for `CCn1cncc1CNS(=O)(=O)c1ccc(C(=O)NC2CC2)cc1` are 1% and -0.14.
With `O=C(CCc1cccs1)NCC(C1CCOC1)N1CCOCC1` (stereo not given), the “% Inhibition” value is -5% and the Z score was determined as 0.58.
Consider `CO[C@H]1C[C@@H](O)C12CCN(C(=O)c1ccc(C#N)cc1)CC2`, for which the “% Inhibition” value was -1% and the Z score worked out at 0.24.
The corresponding values for `O=S(=O)(Nc1ccnc2ccncc12)c1ccc(F)c(F)c1` are -14% and 1.42.
Taken in the same sequence, the figures for `C#CCN(C)[C@@H](C)c1nc(COC)no1` were -11% and 1.25.
Taken in the same sequence, the figures for `N#Cc1ccc(NCc2ccc3c(c2)OCO3)nc1` were -15% and 1.34.
Regarding `CC1CCC(NC(=O)[C@H]2c3cccn3CC(=O)N2Cc2ccccc2)CC1` (stereo not given in full), the “% Inhibition” value was -16% and the Z score worked out at 2.12.
The corresponding values for `Cc1c([C@@H](NC(=O)c2ccc(=O)n(C)n2)C(C)C)oc2ccccc12` are 12% and -1.75.
Taken in the same sequence, the figures for `CCN(CC(=O)Nc1c(F)cccc1F)C(=O)c1cc(C)on1` were -9% and 1.21.
Taken in the same sequence, the figures for `CC(NC(=O)N1CCC(F)(F)C1)C(=O)N1c2ccccc2CC1C` (stereo not given) were -14% and 2.18.
For the compound `Cc1cc(C)c(N2CC[C@H](NCc3csnn3)C2=O)c(C)c1`, the “% Inhibition” value is -2% and the Z score turned out to be 0.24.
Regarding `COc1cc(CN2C[C@H](C(=O)O)[C@@H](c3ccccc3OC)C2)cc(OC)c1`, the “% Inhibition” value is -10% and the Z score is given as 1.96.
Taken in the same sequence, the figures for `CC12CC(c3ccccc3O1)C(C(N)=O)C(=O)N2CCn1ccc2ccc(Cl)cc21` (stereo not given) were -7% and 0.87.
Taken in the same sequence, the figures for `Fc1cnc(-c2ccc3c(c2)OCO3)nc1N1CCOCC1` were 1% and -0.06.
Taken in the same sequence, the figures for `Cc1cc(NC(=O)c2cccc(=O)[nH]2)nn1[C@@H](C)C1CC1` were -19% and 2.47.
For `CCN(CC)CC1CCN(C(=O)c2ccc3cc[nH]c3c2)CC1`, the “% Inhibition” value is 2% and the Z score is reported as -0.27.
Taken in the same sequence, the figures for `COc1ccc(Cc2n[nH]c(C3CCN(C(C)C)CC3)n2)cc1OC` were -10% and 1.74.
The corresponding values for `C#CC(CC)Oc1ccc(COC(=O)C(C)N(C)CC(F)(F)F)cc1` (stereo not given) are 1% and -0.2.
The corresponding values for `Fc1ccc2ncnc(Oc3cccnc3)c2c1` are 33% and -3.77.
Turning to `CC(=O)c1c[nH]c(C(=O)Nc2ccc(N3CCN(C)CC3)c(Cl)c2)c1`, the “% Inhibition” value was 19% and the Z score is -2.19.
Taken in the same sequence, the figures for `Cc1ccc(CN2C(=O)COc3ccc(C(=O)N4CCN(c5ncccn5)CC4)cc32)cc1` were -21% and 2.77.
